{"source": "paper PMC7819943", "about": "“Rice protein-binding microarrays: a tool to detect cis-acting elements near promoter regions in rice”", "note": "Some of the results follow."}
{"molecular_target": "T1, OsWOX13 (Oryza sativa, UniProt Q5QMM3 1-267)", "T1 sequence": "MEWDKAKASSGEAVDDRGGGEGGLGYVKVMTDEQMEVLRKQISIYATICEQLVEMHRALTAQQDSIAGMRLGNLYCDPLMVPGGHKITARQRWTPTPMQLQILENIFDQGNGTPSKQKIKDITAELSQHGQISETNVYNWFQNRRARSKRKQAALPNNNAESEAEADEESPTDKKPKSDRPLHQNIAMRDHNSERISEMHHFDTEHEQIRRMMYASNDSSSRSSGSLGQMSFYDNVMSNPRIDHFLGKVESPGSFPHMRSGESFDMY", "assay": "protein-binding microarray (RPBM); PBS, 2% BSA, 51.3 ng/ul salmon testes DNA, 50 uM zinc acetate, 200 nM TF, 25 C, 1 h; high values mean tight binding", "details": "protein: recombinant; tags: N-terminal polyhistidine and DsRed monomer fusion (pET32a); label: CyDye5-dUTP incorporated in the synthesized complementary strand; 3' TTTTT single-stranded linker to array surface; dsDNA, one strand shown", "outline": "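Transcription factors, each fused N-terminally to a polyhistidine tag and DsRed, were expressed in E. coli BL21-CodonPlus and purified on Ni–NTA. A custom Agilent array was made double-stranded by primer extension with Cy5-dUTP and blocked with 2% BSA. It was incubated with 200 nM protein in PBS, 2% BSA, salmon testes DNA and 50 µM zinc acetate at 25 °C for 1 h, then washed. The binding signal is per-feature fluorescence intensity (arbitrary units) read on an Axon 4000B scanner.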"}
{"sequence": "ATTACATATTGATTATTATAAATTGGAAAATAGATATATTCGGAGTCACCTAGTGCAG", "binding signal": "19400 fluorescence intensity (a.u.)"}
{"sequence": "TGGAATTAACTGTTGATGACACGGTACTACGGTAGAGCTCCGGAGTCACCTAGTGCAG", "binding signal": "12000 fluorescence intensity (a.u.)"}
{"sequence": "AATATTAAATGACATAATTTATATGCAACATAATACCATACGGAGTCACCTAGTGCAG", "binding signal": "17400 fluorescence intensity (a.u.)"}
{"sequence": "CTGGTAATAGAAAATAATCTAAATCGTTGATTTCATTTGACGGAGTCACCTAGTGCAG", "binding signal": "7530 fluorescence intensity (a.u.)"}
{"sequence": "AAAATTTTGATGGGCCTGATCTGGGCCACTTTGGGCCTTGCGGAGTCACCTAGTGCAG", "binding signal": "4640 fluorescence intensity (a.u.)"}
{"sequence": "TCAGTAAATTAAATACTAGAGTCAACAACACACTATCATGCGGAGTCACCTAGTGCAG", "binding signal": "8570 fluorescence intensity (a.u.)"}
{"sequence": "GGAAATTTTGTGACCAATTTTCGTATGTTGTTTCTCCTGGCGGAGTCACCTAGTGCAG", "binding signal": "4030 fluorescence intensity (a.u.)"}
{"sequence": "GATTTAAATTAGATGGAAGGTTGAGAATTAAGCTGATCCTCGGAGTCACCTAGTGCAG", "binding signal": "13600 fluorescence intensity (a.u.)"}
{"sequence": "CATCTCTATGATTGCCTCTAGGGCATATCACTAACACTAACGGAGTCACCTAGTGCAG", "binding signal": "16400 fluorescence intensity (a.u.)"}
{"sequence": "GTGGTCCGGTGGTGGGGTGATGGGGCGTGGCGGTTCTGTCCGGAGTCACCTAGTGCAG", "binding signal": "3940 fluorescence intensity (a.u.)"}
{"sequence": "CAAATTGGTGGGTGATTGCTAATTTATAACTGTTCGTATTCGGAGTCACCTAGTGCAG", "binding signal": "64100 fluorescence intensity (a.u.)"}
{"sequence": "ATGATAAATGGATTACTTACATGACGTTTGCCTATCGATCCGGAGTCACCTAGTGCAG", "binding signal": "17500 fluorescence intensity (a.u.)"}
{"sequence": "GGTCGCCGGATCGCGGGAGGGAGGGAGGGAGGGAGGGAGGCGGAGTCACCTAGTGCAG", "binding signal": "7230 fluorescence intensity (a.u.)"}
{"sequence": "TTACATGATTATGTTAATTACTACACAATTATAGGGCCTACGGAGTCACCTAGTGCAG", "binding signal": "42500 fluorescence intensity (a.u.)"}
{"sequence": "TGATTATGATTGGAGTCCCTGGCAAAGTTTGGCCGAGTTCCGGAGTCACCTAGTGCAG", "binding signal": "21700 fluorescence intensity (a.u.)"}
{"sequence": "TTAGTAAATAGTCAATTAATCATGTACCGATCAAATGAATCGGAGTCACCTAGTGCAG", "binding signal": "16900 fluorescence intensity (a.u.)"}
{"sequence": "GTGATGTCTTATTGACATGACATCATAGACACTACTTATACGGAGTCACCTAGTGCAG", "binding signal": "5410 fluorescence intensity (a.u.)"}
{"sequence": "CGCTTCGAGTTAATTAACGAAATCTCAAGGGATCATTACGCGGAGTCACCTAGTGCAG", "binding signal": "14700 fluorescence intensity (a.u.)"}
{"sequence": "TTCATCATCAATCATCATATTAAGTTAAATCTATCTCAAACGGAGTCACCTAGTGCAG", "binding signal": "15400 fluorescence intensity (a.u.)"}
{"sequence": "GTAAATTGATCATTTCGATACATCAACATCCGCACAAACACGGAGTCACCTAGTGCAG", "binding signal": "39900 fluorescence intensity (a.u.)"}
{"sequence": "AGTACCTGATGAGTGATGACTAGTGCTTTCACAAATTCAGCGGAGTCACCTAGTGCAG", "binding signal": "3400 fluorescence intensity (a.u.)"}
{"sequence": "AGAAATTAGGCTTAAAAGATTCATCTCGCAAATTAGTCGCCGGAGTCACCTAGTGCAG", "binding signal": "3540 fluorescence intensity (a.u.)"}
{"sequence": "TATTTAATTTGTGAATGTTGCATGTGATGTTCATTGAATGCGGAGTCACCTAGTGCAG", "binding signal": "19900 fluorescence intensity (a.u.)"}
{"sequence": "TCTCATAAATAAATTAGCCAGACCATCCAAGCAACAAACGCGGAGTCACCTAGTGCAG", "binding signal": "3550 fluorescence intensity (a.u.)"}
{"sequence": "ACTGATTTCCCGTCTATCCTGTGGCACCATTCATACTTCACGGAGTCACCTAGTGCAG", "binding signal": "21400 fluorescence intensity (a.u.)"}
{"sequence": "GTCCTTCTATCTCCAAATCTAATTTGAAATTGCTACATCACGGAGTCACCTAGTGCAG", "binding signal": "5230 fluorescence intensity (a.u.)"}
{"sequence": "CTTAATTAATTAATAGCAGCAGCAATGCCACTGTGGCCATCGGAGTCACCTAGTGCAG", "binding signal": "53500 fluorescence intensity (a.u.)"}
{"sequence": "AATTCATACTAATTTGTTTGTACGGTGTTTCTTTTAGTTGCGGAGTCACCTAGTGCAG", "binding signal": "6660 fluorescence intensity (a.u.)"}
{"sequence": "AATAATTTACGGACAACCAATGTCATTTTGTGCATAGGTTCGGAGTCACCTAGTGCAG", "binding signal": "6250 fluorescence intensity (a.u.)"}
{"sequence": "GTATGATGGTAATTCTTGGAATTAACGCTTGTTGATATCACGGAGTCACCTAGTGCAG", "binding signal": "5530 fluorescence intensity (a.u.)"}
{"sequence": "GAGCAGCAGCTTAATTGGATCATCGAATCTCGCACCGCCACGGAGTCACCTAGTGCAG", "binding signal": "4860 fluorescence intensity (a.u.)"}
{"sequence": "CATGCGTAATGATTGATGGAATATAATGGCGTTGCCTTGCCGGAGTCACCTAGTGCAG", "binding signal": "39900 fluorescence intensity (a.u.)"}
{"sequence": "ACAATCAAGTAAAATCTTAATTAGTGACATCAAAGCAATTCGGAGTCACCTAGTGCAG", "binding signal": "9910 fluorescence intensity (a.u.)"}
{"sequence": "CCTCAGATTTAATGACGAACTCTGTGGACATCTCTTGCTGCGGAGTCACCTAGTGCAG", "binding signal": "6450 fluorescence intensity (a.u.)"}
{"sequence": "GATGTTCAATCACGCAAGATTAAACAATCCTGAAGTTAATCGGAGTCACCTAGTGCAG", "binding signal": "19300 fluorescence intensity (a.u.)"}
{"sequence": "CCACAAATTAATTGATCTGCTTCCTCCTCCCCTCCTCTCACGGAGTCACCTAGTGCAG", "binding signal": "49600 fluorescence intensity (a.u.)"}
{"sequence": "CTACACTTGATTTATCTTAACCCCTGCTTAGACTATGATTCGGAGTCACCTAGTGCAG", "binding signal": "18500 fluorescence intensity (a.u.)"}
{"sequence": "GCGGATTGGTTGCCTGACCCTCCTCCTCCTCCTCCTCCTCCGGAGTCACCTAGTGCAG", "binding signal": "8490 fluorescence intensity (a.u.)"}
{"sequence": "ATCCTATCCCATATTAATTATTCTTCGAATTAGATTCGAGCGGAGTCACCTAGTGCAG", "binding signal": "3160 fluorescence intensity (a.u.)"}
{"sequence": "GTTGATTTAGTTTTGAGGAGCCGGAGAGGAGAGCAGGTGTCGGAGTCACCTAGTGCAG", "binding signal": "14300 fluorescence intensity (a.u.)"}
{"sequence": "AATGATATCCAATTAATAATCTTGCTGCAACACGAAAGCTCGGAGTCACCTAGTGCAG", "binding signal": "30500 fluorescence intensity (a.u.)"}
{"sequence": "TTAATGGAACTAATTTAATACTCCCTCTGTTTCATAATGTCGGAGTCACCTAGTGCAG", "binding signal": "15800 fluorescence intensity (a.u.)"}
